Laboratory results published in the supplement of paper PMC9174493.
The list shows a part of the results. Single values of this set are uncertain. Values with irradiation are relative to irradiated vehicle.

Assays:
A549-Dual [1] = test: NF-kB reporter (SEAP) activity, viability-corrected, relative to vehicle (fold change vs vehicle); higher = more activation of STING-IRF / NF-kB immune response reporter
A549-Dual [2] = test: ISRE reporter (Lucia luciferase) activity, viability-corrected, relative to vehicle (fold change vs vehicle); higher = more activation of STING-IRF / NF-kB immune response reporter
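Throughout, for NF-kB reporter (SEAP) activity, viability-corrected, relative to vehicle: viability correction based on the alamar blue assay, with concentrations leaving 10% survival or less dropped.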

| SMILES | NF-kB reporter (A549-Dual [1]; 0.1 µM, irradiation: 8 Gy/4 fr) | NF-kB reporter (A549-Dual [1]; 0.1 µM, irradiation: none) | NF-kB reporter (A549-Dual [1]; 0.3 µM, irradiation: 8 Gy/4 fr) | NF-kB reporter (A549-Dual [1]; 0.3 µM, irradiation: none) | NF-kB reporter (A549-Dual [1]; 1 µM, irradiation: 8 Gy/4 fr) | NF-kB reporter (A549-Dual [1]; 1 µM, irradiation: none) | NF-kB reporter (A549-Dual [1]; 3 µM, irradiation: 8 Gy/4 fr) | NF-kB reporter (A549-Dual [1]; 3 µM, irradiation: none) | NF-kB reporter (A549-Dual [1]; 10 µM, irradiation: 8 Gy/4 fr) | NF-kB reporter (A549-Dual [1]; 10 µM, irradiation: none) | ISRE reporter (A549-Dual [2]; 0.1 µM, irradiation: 8 Gy/4 fr) | ISRE reporter (A549-Dual [2]; 0.1 µM, irradiation: none) | ISRE reporter (A549-Dual [2]; 0.3 µM, irradiation: 8 Gy/4 fr) | ISRE reporter (A549-Dual [2]; 0.3 µM, irradiation: none) | ISRE reporter (A549-Dual [2]; 1 µM, irradiation: 8 Gy/4 fr) | ISRE reporter (A549-Dual [2]; 1 µM, irradiation: none) | ISRE reporter (A549-Dual [2]; 3 µM, irradiation: 8 Gy/4 fr) | ISRE reporter (A549-Dual [2]; 3 µM, irradiation: none) | ISRE reporter (A549-Dual [2]; 10 µM, irradiation: 8 Gy/4 fr) | ISRE reporter (A549-Dual [2]; 10 µM, irradiation: none) |
| --- | --- | --- | --- | --- | --- | --- | --- | --- | --- | --- | --- | --- | --- | --- | --- | --- | --- | --- | --- | --- |
| O.O.O=C([O-])CCNC(=O)c1ccc(N=Nc2ccc(O)c(C(=O)[O-])c2)cc1.[Na+].[Na+] [Balsalazide disodium] | 1.04 | 1.55 | 1.03 | 1.86 | 1.1 | 1.27 | 1.24 | 1.47 | 1.12 | 1.04 | 1.26 | 1.51 | 1.14 | 1.44 | 1.12 | 1.19 | 1.12 | 1.28 | 1.03 | 0.993 |
| Cc1nccn1CC1CCc2c(c3ccccc3n2C)C1=O.Cl (stereo not given) [Ondansetron HCl] | 0.885 | 1.39 | 1.11 | 1.49 | 1.51 | 1.1 | 1.4 | 1.11 | 1.07 | 1.1 | 1.01 | 0.772 | 0.914 | 1.04 | 0.851 | 0.856 | 0.78 | 1.19 | 0.784 | 0.803 |
| CC(C)CC(NC(=O)CNC(=O)c1cc(Cl)ccc1Cl)B(O)O (stereo not given) [Ixazomib (MLN2238)] | 1.23 | 1.5 | 1.36 | 2.08 | 1.31 | 2.82 | 0.95 | 2 | 0.744 | 1.55 | 0.163 | 1.08 | 0.0707 | 0.412 | 0.0801 | 0.487 | 0.0735 | 0.478 | 0.0428 | 0.292 |
| CC1=C(/C=C/C(C)=C/C=C/C(C)=C/C(=O)Nc2ccc(O)cc2)C(C)(C)CCC1 [Fenretinide] | 1.2 | 1.3 | 0.944 | 1.35 | 1.05 | 1.76 | 0.764 | 1.34 | 0.597 | 1.12 | 1.2 | 1.64 | 1.21 | 1.21 | 0.841 | 1.48 | 0.522 | 0.535 | 0.281 | 0.579 |
| CC(C)(C)C(=O)Oc1ccc(S(=O)(=O)Nc2ccccc2C(=O)NCC(=O)O)cc1 [Sivelestat (ONO-5046)] | 0.955 | 0.947 | 0.843 | 1.22 | 0.837 | 1.63 | 0.853 | 1.26 | 0.854 | 1.01 | 1.06 | 1.12 | 0.879 | 1.12 | 0.907 | 1.15 | 0.935 | 0.919 | 0.989 | 0.814 |
| Cn1nnc2c(C(N)=O)ncn2c1=O [Temozolomide] | 0.837 | 0.917 | 0.917 | 1.01 | 0.769 | 0.961 | 0.874 | 0.843 | 0.749 | 0.951 | 0.881 | 0.859 | 0.973 | 0.866 | 0.755 | 0.899 | 0.826 | 0.764 | 0.761 | 0.806 |
